Test results reported in PubChem BioAssay AID1347073 (National Center for Advancing Translational Sciences (NCATS), 2019).
Out of some 45,000 compounds screened, about 200 (0.44%) were called active. Another 7% or so got no clear call; they are omitted. The call rests on the fitted dose curve; in most records, active means well fitted activation curve with a large enough effect; inconclusive means small, poorly fitted or top-dose-only effect; inactive means no such curve, though single readings can be large or run the other way. Some of the results follow.

assay: qHTS of TDP-43 Inhibitors: NCGC Sytravon Library Screen; conditions: yeast TDP-43 toxicity rescue, BacTiter-Glo growth, 24 h; series mostly up to 46.1 µM; growth rescue (activation): at the top concentration; further: 0% is about no effect; nearly all actives have a fitted effect of over 55% in size
Summary of the method: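 TDP-43-expressing yeast, pregrown in raffinose, seeded at OD600 0.02 in galactose medium with compound for 24 hr at 30 deg C. Growth read by BacTiter-Glo luminescence, so rescue of toxicity appears as activation.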

SMILES	growth rescue (activation)
Cc1ccccc1OCC(=O)NNC(=O)Cn1[nH]c(=O)c2ccccc2c1=O	inactive: 8.72%
COc1ccc(CNC(=O)C2CCCN(C(=O)Nc3ccccc3OC)C2)cc1 (stereo unspecified)	inactive: -0.937%
CCc1cccc(CC)c1NC(=O)CO/N=C(\C)c1cccs1	inactive: 39.3%
NC(=O)CSc1nccn1Cc1ccc2c(c1)OCO2	inactive: 13.7%
Cc1ccc(CNC(=O)CCS(=O)(=O)c2ccc(Cl)cc2)cc1	inactive: 9.69%
CC(=O)Nc1ccc(S(=O)(=O)N2CCN(Cc3csc(C)n3)CC2)cc1	inactive: -4.04%
O=C(O)Cc1ccc(NC(=S)NCc2ccco2)cc1	inactive: 12.5%
CC(=O)N1CCC(N(CCN2CCOCC2)C(=S)Nc2cc(C)cc(C)c2)CC1	inactive: 4.91%
COc1ccc(-c2nnc(-c3ccccc3O)o2)cc1	inactive: 6.43%
O=C(c1ccccc1)c1ccccn1	inactive: 7.79%
CCc1ccc(NC(=O)C2CCCN(S(=O)(=O)c3c(C)[nH]c(=O)[nH]c3=O)C2)cc1 (stereo unspecified)	inactive: -4.13%
CCN=C1SC(CC(=O)Nc2sc3c(c2C#N)CCCC3)C(=O)N1CC (stereo unspecified)	inactive: -14.5%
COC(=O)c1ccc(Cn2nc(-c3ccc(C)c(C)c3)ccc2=O)cc1	inactive: -12.4%
C#CCn1cc(/C=N/NC(=O)COc2cccc3cccnc23)c2ccccc21	inactive: -8.22%
CCOC(=O)C1CCN(C(=O)COC(=O)CNC(=O)c2ccc(C(C)(C)C)cc2)CC1	inactive: 7.71%
O=C(Nc1ccc(C(F)(F)F)cc1)C1CC(=O)N(c2ccc3c(c2)OCCO3)C1 (stereo unspecified)	inactive: 14.8%
Cc1ccc(-c2nnn(CC(=O)N(Cc3ccco3)C(C(=O)NC(C)(C)C)c3ccncc3)n2)o1 (stereo unspecified)	inactive: 8.21%
Cc1cc(=O)n2c(C(=O)Nc3ccc(C(=O)OC(C)C)cc3)c(C(=O)Nc3ccccc3)sc2n1	inactive: 6.29%
CCSc1nnc(-c2ccc(S(=O)(=O)N3CCOCC3)cc2)n1C	inactive: -39.6%
CC(=O)OCC[n+]1c(C)n(-c2ccccc2)c2ccc(Cl)cc21	inactive: 1.06%
Cn1c(N)c(C(=O)CSc2nnc(C3CC3)n2Cc2ccccc2)c(=O)n(C)c1=O	inactive: 2.45%
O=C(CSc1nnnn1-c1ccccc1)N1CCN(C(=O)c2ccco2)CC1	inactive: -10.9%

SMILES	growth rescue (activation)
COc1cc(CN2CCN(Cc3ccco3)CC2)cc(OC)c1	inactive: 2.68%
Cc1nc2nc(C)c(CCC(=O)NCCCN3CCN(c4cccc(Cl)c4)CC3)c(C)n2n1	inactive: -2.07%
CCN(CC(=O)Nc1ccc(N2CCOCC2)cc1)CC(=O)NC(C)(C)C	inactive: -7.33%
O=C(Nc1noc2ccccc12)c1cccc(F)c1	inactive: 16.6%
O=C(COc1ccccc1)NCC(=O)N/N=C/C=C/c1ccccc1	inactive: 5.67%
COc1ccc(S(=O)(=O)N2CCOCC2)cc1NC(=O)c1ccccc1-c1ccc(C(F)(F)F)cc1	inactive: -1.04%
CCN(CC)C(=O)CN1C(=O)C(=O)c2ccccc21	inactive: -4.4%
COc1cc(NC(=O)CN2C(=O)COc3ccccc32)cc(OC)c1	inactive: -6.38%
COc1ccc(N(CC(=O)NCc2ccccc2C)S(=O)(=O)c2ccc(C)cc2)cc1OC	inactive: 8.22%
O=c1cnc2ccccc2n1Cc1ccccc1C(F)(F)F	inactive: 6.77%
COc1cc(/C=C(\C#N)C(=O)Nc2cc(C(F)(F)F)ccc2Cl)ccc1OCC(=O)Nc1cccc(C(F)(F)F)c1	inactive: 23%
CC(C)NC(=O)C1(C)CCN1C(=O)c1cccc(Cl)c1 (stereo unspecified)	inactive: 6.58%
CCOc1ccc(S(=O)(=O)Nc2ccc3c(c2)c(C(C)=O)c(C)n3S(=O)(=O)c2ccc(OCC)cc2)cc1	inactive: 0.356%
O=C(OCC(=O)N1CCOCC1)c1ccc(Br)cc1	inactive: -0.554%
CCCCN(C)CCNC(=O)C(NC(=O)C1CCC(C)CC1)C(C)C (stereo unspecified)	inactive: -3.01%
O=c1[nH]c(-c2ccccc2)nnc1-c1ccccc1	inactive: -15.6%
Cc1ccc(NC(=O)CN2CCOCC2)cc1S(=O)(=O)N1CCCCC1	inactive: 8.97%
COc1ccccc1C(=O)NCC(=O)OCC(=O)N1CC(C)OC(C)C1 (stereo unspecified)	inactive: 18.2%
COc1ccc(C(=O)N/C(=C\c2cccs2)C(=O)N2CCN(C)CC2)cc1OC	inactive: -21%
CCNC(=S)N/N=C(\C)c1cccc([N+](=O)[O-])c1	inactive: 1.99%
Cc1cc(NC(=O)CCCn2nc(C)c([N+](=O)[O-])c2C)no1	inactive: 1.16%
Cc1nc(CN2CCCCC2)cc(=O)[nH]1	inactive: -28.4%

SMILES	growth rescue (activation)
COc1cc(OC)c(NS(=O)(=O)c2cc(C(=O)OC(C)C(=O)NC3CC3)c(Cl)cc2Cl)cc1Cl (stereo unspecified)	inactive: 11.4%
COc1nccnc1NS(=O)(=O)c1ccc(NC(=S)NC(=O)c2ccccc2)cc1	inactive: -14.4%
CC(C)n1c(NCc2ccccc2O)nc2ccccc21	inactive: 8.98%
Cc1ccc(-c2nn(-c3ccccc3)cc2/C=N/NC(=O)c2ccncc2)o1	inactive: -6.92%
O=C(Nc1cccnc1Cl)c1cc(-c2ccc(Cl)cc2)on1	inactive: -1.92%
Cc1ccc2c(Cl)c(C(=O)Nc3ccc4c(c3)OCO4)sc2c1	inactive: 11.1%
Cn1c(N)c(C(=O)COC(=O)CNS(=O)(=O)c2ccc(Cl)c(Cl)c2)c(=O)n(C)c1=O	inactive: 11.3%
Cc1ccc2ccccc2c1C(O)c1ncc(-c2ccccc2)[nH]1 (stereo unspecified)	inactive: 1.99%
CCNC(=S)N1CCN(c2ccccn2)CC1	inactive: -3.77%
COc1ccccc1-c1c(C)nn2c(N3CCC(C)CC3)cc(C)nc12	inactive: -6.54%
CC(=O)c1ccc(OC2(C)CCN(Cc3ccc(OC(F)(F)F)cc3)C2)cc1 (stereo unspecified)	inactive: 6.29%
CC1(C)OC(=O)C(=Cc2ccc(-c3ccc(S(N)(=O)=O)cc3)o2)C(=O)O1	inactive: -4.58%
Cc1ccc(CN(CC(=O)NCC2CCCO2)S(=O)(=O)c2ccc(C)cc2)cc1 (stereo unspecified)	inactive: 21%
Cc1ccc(-c2nnn(CC(=O)N(Cc3ccco3)C(C(=O)NC(C)(C)C)c3ccc(C)o3)n2)o1 (stereo unspecified)	inactive: -0.47%
COc1ccc(C)cc1S(=O)(=O)N1CC(C)OC(C)C1 (stereo unspecified)	inactive: 7.2%
Cc1ccc(C(=O)c2ccccc2C(=O)OCC(=O)NCCc2ccc(Cl)cc2Cl)cc1	inactive: 20.1%
CC1(C(=O)NS(=O)(=O)c2ccc(Br)cc2)CCN1C(=O)CCC1CCCC1 (stereo unspecified)	inactive: -14.6%
COc1cccc2[nH]c3c(Cl)ncnc3c12	inactive: -9.51%
O=C(O)C12CC3CC(C1)CC(n1cnc(Cl)n1)(C3)C2	inactive: 20.5%
CCn1cc(CN2CCC(C(=O)Nc3ccc(Oc4cccnc4)cc3)CC2)cn1	inactive: -86.2%
O=C(N/N=C/c1cccnc1)C12CC3CC(CC(C3)C1)C2	inactive: -0.125%
Cc1ccc(OCC(=O)N2CCOCC2)c([N+](=O)[O-])n1	inactive: 19%

SMILES	growth rescue (activation)
O=C(Nc1ccc(C(F)(F)F)cc1-c1ccccc1)c1ccccc1	inactive: 7.38%
CC1(C(=O)NS(=O)(=O)c2ccc(Cl)cc2)CCN1C(=O)CCc1ccccc1 (stereo unspecified)	inactive: 4.76%
CS(=O)(=O)Cc1cccc(C(=O)NC2CCSc3ccccc32)c1 (stereo unspecified)	inactive: 6.76%
CCOC(=O)c1c(NC(=O)COc2ncnc3ccccc23)sc(C(C)=O)c1C	inactive: 2.73%
COc1ccccc1CNC(=O)C(Cc1c[nH]c2ccccc12)NC(=O)OCc1ccccc1 (stereo unspecified)	inactive: 8.23%
CC(=O)Nc1cccc(-c2ccnc3c2CC(C)(C(=O)NCC2CC2)O3)c1 (stereo unspecified)	inactive: 4.59%
COC(=O)c1ccc(CSc2nnc3c(n2)[nH]c2ccccc23)cc1	inactive: -2.87%
CCOC(=O)c1sc2nc3c(SCC(=O)O)cc(C(=O)c4ccccc4O)cn3c(=O)c2c1C	inactive: 5.42%
O=C(c1ccc(=O)[nH]c1)N(Cc1ccco1)C1(C(=O)NC2CCCC2)CCCCC1	inactive: 21.8%
Cc1nc(C(=O)N2CCc3c([nH]c4ccccc34)C2c2ccccn2)cs1 (stereo unspecified)	inactive: 8.82%
O=C(C1CC(=O)N(c2ccc(F)cc2)C1)N1CCCCCC1 (stereo unspecified)	inactive: 1.56%
COc1cccc(C(NC(C)=O)c2nc(-c3cccnc3)cs2)c1 (stereo unspecified)	inactive: -9.91%
COc1cc(/C=N/Nc2nc3ccccc3[nH]2)cc(OC)c1O	inactive: 25.5%
CCN(Cc1cn2cccnc2n1)C1CCCCC1	inactive: -2.26%
COc1ccc(NC(=S)NC2CCN(Cc3ccccc3)CC2)cc1OC	inactive: 5.05%
CCOC(=O)C1=C(CCl)NC(=O)NC1c1ccc2c(c1)OCO2 (stereo unspecified)	inactive: 2.13%
O=c1c2ccc([N+](=O)[O-])cc2ncn1CCOc1cccc(Br)c1	inactive: 20%
Cc1ccc(NS(=O)(=O)c2cc3c4c(cccc4c2)C(=O)NC3=O)cc1	inactive: 1.91%
O=C(CN1C(=O)c2ccccc2S1(=O)=O)NCc1ccccc1	inactive: -1.86%
COc1ccc(CC(=O)Nc2cc(Cl)ccc2N2CCCC2)cc1	inactive: 13.9%
Cc1ccc(-c2nc(NC(=O)CSc3ccc4ccccc4n3)ns2)cc1	inactive: -3.91%
O=[N+]([O-])c1cc(C(F)(F)F)ccc1N1CCC(O)CC1	inactive: 17.4%

SMILES	growth rescue (activation)
O=C(COC(=O)c1nsc(Cl)c1Cl)NC1CCCCC1	inactive: -19%
CCCCN1C(=O)C2C3C=CC(C2C1=O)C1C2C(=O)N(CCCC)C(=O)C2C31 (stereo unspecified)	inactive: -2.86%
OCCN1CCN(c2cc(-c3ccccc3)c3ccccc3n2)CC1	inactive: -3.38%
O=C(N[C@@H](Cc1ccccc1)C(=O)N1CCN(S(=O)(=O)c2ccccc2F)CC1)c1ccco1	inactive: 23.2%
CCN(Cc1ccccc1)C(=O)c1cccnc1	inactive: -13.4%
CCc1cc(C(=O)N2CCCC(C(=O)c3cccc(OC(C)C)c3)C2)n(C)n1 (stereo unspecified)	inactive: 10.5%
O=C(c1ccc(Cl)cc1)N1C2C=CC(C2)C1(C(F)(F)F)C(F)(F)F (stereo unspecified)	inactive: 2.42%
Cc1cc[n+](-c2[nH]c(=O)sc2/C=N/N=C(\[O-])c2ccccc2)cc1	inactive: -1.03%
CC(=O)Nc1ccc(NC(=O)C2CC(=O)N(c3ccccc3Cl)C2)cc1 (stereo unspecified)	inactive: 8.05%
Cc1cccc(NC(=O)CN2CCN(C(=O)C3CCC3)CC2)c1C	inactive: 5.09%
Cc1nn(-c2ccccc2)c(N2CCCC2)c1/C=N/NC(=O)c1cc(-c2cccnc2)nc2ccccc12	inactive: 9.47%
CN1CCC(=NNC(=O)COc2ccc(Cl)cc2)CC1	inactive: 12%
Cc1ccc(C(=O)CSc2ncnc3ccccc23)o1	inactive: 30.8%
O=S(=O)(NCc1ccccn1)c1ccc2ccccc2c1	inactive: 7.52%
Cc1cc(NC(=O)COC(=O)CNS(=O)(=O)c2c(F)cc(F)cc2Br)no1	inactive: 11.9%
CCOC(=O)CSc1nc2ccc(N)cc2s1	inactive: 41.1%
COc1ccccc1N1CCN(C2CCN(S(=O)(=O)c3ccc(NC(C)=O)cc3)CC2)CC1	inactive: 13.1%
CC(C)[C@H](NS(=O)(=O)c1ccccc1F)C(=O)OCC(=O)Nc1cccc(S(N)(=O)=O)c1	inactive: 14.8%
